Source: the RNAGym collection of RNA variant scans (doi:10.1101/gad.245936.114)
This sample is rich in variants without activity.

B1: tRNA (parent)
chain: CUCUCGGUAGCCAAGUUGGUUUAAGGCGCAAGACUUUAAUUUAUCACUACGAAAUCUUGAGAUCGGGCGUUCGACUCGCCCCCGGGAGAUUUUUUCCUCGAGCAA

Variants of: B1
Assay: nonsense suppression (GFP-seq) (ratio to wild type); higher = more function; SUP4oc tRNA, yeast GFP reporter sort-seq
Procedure, shortened: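 Nonsense suppression (GFPSEQ) is the median GFP/RFP ratio of each sorting bin, weighted by the variant's estimated share of cells in that bin and expressed relative to the unmutated parent tRNA. Yeast strains carried genome-integrated variants of an ochre-suppressor tRNA from a library with ~3% random mutations, plus a galactose-driven GFP ochre reporter and RFP, and were grown in raffinose/galactose medium containing 80 mg/L adenine. Cells were sorted into GFP/RFP bins, each bin was Illumina-sequenced (phred ≥30), and variants were kept only with ≥100 reads and ≥30 cells.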

Nonsense suppression, ≤ 0.026:
CUCUCGGUAGCCAUGUUGGUUUAAGGAGCAAGACUUUAAUUUAUCACUACGAAAUCUUGAGAUCGGGCGUUCGACUCCCCCCCGGGAGAUUUUUUCCUCGAGCAA
CUCUCGGUAGCCAUGUUGGUUUAAGGCGCAAGACUUUAAUUUAUCACUACGAAAUCUUGAGAUCGGGCGUUCGACUCGCCCCCGGAAGAUUUUUUCCUCGAGCAA
CUCUCGGUAGCCAUGUUGGUUUAAGGCGCAAGACUUUAAUUUAUCACUACGAAAUCUUCAGAUCGGGCGUUCGACUCGACCCCGGGAUAUUUUUUCCUCGAGCAA
CUCUCGGUAGCCAUGUUGCUUUAAGGCGCAAGACUUUAAUUUAUCACUACGAACUCUUGAGAUCGGGCGUUCGACUCGCCCCCGGGAGAUUUUUUCCUCGAGCAA
CUCUCGGUAGCCAUGUUGGUUUAAGGCGCAAGACUUUAAUUUAUCACUACGAAAUCUUGACAUCGGGCCUUCGACUCGCACCCGAGAGAUUUUUUCCUCGAGCAA
CUCUCGGUAGCCAUGUUGGUUUAAGGCGCAAGACUUUAAUUUAUCACUACGAAAUCUUCAGAUCGGGCGUUCGACUCGCCCCCGGGAGAUUUUUUCCUCGAGCAA
CUCUCGGUAGCCAUGUUGGUUUAAGGCGCAAGACUUUAAUUUAUCACUACGAAAUCUUGAGAUCGGGCGUUGGACUCGCCCCCGGAAGAUUUUUUCCUCGAGCAA
CUCUCGGUAGCCAUGUUGGUUUAAGGCGCAACACUUUAAUUUAUCACUACGAAAUCUUGAGAUCGGGCGUUCGACUCGCCCCCGGGAUAUUUUUUCCUCGAGCAA
CUCUCGGUAGCCAUGUUGGUUUAAGGCGAAAGACAUUAAUUUAUCACUACGAAACCUUGAGAACGGGCCUUCGACUCGCCCCCGGGAGAUUUUUUCCUCGAGCAA
CUCUCGGUAGCCAUGUUGGUUUAAGGCGCAAGACUUUAAUUUAUCACUACGAAAUCUUGAGAUCGGCCGUUCGACUCGCCCCCGGGAGAUUUUUUCCUCGAGCAA
CUCUCGGUAGCCAUGUUGGUUUAAGGCGCAAGACUUUAAUUUAUCACUACGAAAUCUUGAGAUCGGGCGUUCAGCUCGCCCCCGGGAGAUUUUUUCCUCGAGCAA
CUCUCGGUAGCCAUGAUGGUUUAAGGCGCAAGACUUUAAUUUAUCACUACGAAAUCUUGAGAUCGGGCGUUCGACUCGCGCCCGGGAGAUUUUUUCCUCGAGCAA
CUCUCGGUAGCCAUGUUGGUUUAAGGCGCAACACUUUAAUUUAUCACUACGAAAUCUUGAGAUCGGGCGUUCGACUCGCCCCCGGGAGAUUUUUUCCUCGAGCAA
CUCUCGGUAGCCAUGUUGGUUUAAGGCGCAAGACUUUAAUUUAUCACUACGAAAUCUUGAGAUGGGGCGUUCGACUCGCCCCCGGGACAUUUUUUCCUCGAGCAA
CUCUCGGUAGCCAUGUUGGUUUAAGGCGUAAGACUUUAAUUUAUCACUACGAAAGCUUGAGAUCGGGCGUUCGACUCGCCCCGGGGAGAUUUUUUCCUCGAGCAA
CUCUCGGUAGCCAUAUUGGUUUAAGGCGCAAGACUUUAAUUUAUCACUACGAAAUCUUGAGAUCGGGCGUUCGACUCGCCCCCGGAAGAUUUUUUCCUCGAGCAA
CUCUCGGUAGCCAUGUUGGUUUAAGGCUCUAGACUUUAAUUUAUCACUACGAAACCUUGAGAUCGGGCGUUCGACUCGCCCUCGGUAGAUUUUUUCCUCGAGCAA
CUCUCGGUAGCCAUGUUGGUUUAAGGCGCAAGACUUUAAUUUAUCACUACGAAAUCUUGAGAUCGGGCGUUCGACUCCCCCCCAGCAGAUUUUUUCCUCGAGCAA
CUCUCGGUAGCCAUGCUGGUUUAAGGCGCAAGCCUUUAAUUUAUCACUACGAAAUCUUGAGAUCGGGCGUUCGACUCGCCCCCAGGAGAUUUUUUCCUCGAGCAA
CUCUCGGUAGCCAUGUUGGUUUAAGGCGCAAGACUUUAAUUUAUCACUACGAAAUCUUGAGGUCGGGCGUUCGACUCGCCCCCGGGAGAUUUUUUCCUCGAGCAA
CUCUCGGUAGCCAUGUUGGUUUAAGGCGCAAGACUUUAAUUUAUCACUACGAAAUCUUGAGCUCGGGCGUUCGACUCGCCCCCGGGAGAUUUUUUCCUCGAGCAA
CUCUCGGUAGCCAUGUUGGUUUAAGGCCCAAGACUUUAAUUUAUCACUACGAAAUCUUGAGGUCGGGCGUUCGACCCACCCCCGGGAGAUUUUUUCCUCGAGCAA
CUCUCGGUAGCCAUGUUGGUUUAAGGCGCAAGACUUUAAUUUAUCACUACGAAAUCUUGAGAUCGGGCGUUCGACUCGCCCGCGGGAGAUUUUUUCCUCGAGCAA
CUCUCGGUAGCCAUGAUGGUUUAAGGCGCAAGACUUUAAUUUAUCACUACGAAAUCUUGAGAACGGGCGUUCGACUCGCCCCCGGGAGAUUUUUUCCUCGAGCAA
CUCUCGGUAGCCAUGUUGGUUUAAGGCGCAAGACUUUAAUUUAUCACUACGAAAUCUUGAGAUCGGGCGUUCGACUCGCCCCCGUGAUAUUUUUUCCUCGAGCAA
CUCUCGGUAGCCAUGUUGGUUUAAGGCGCAAGACUUUAAUUUAUCACUACGAAAUCUUGAGAUCGGGCGUUCGACUCGCCACCGGGAGAUUUUUUCCUCGAGCAA
CUCUCGGUAGCCAUGUUGGUUUAAGGCGCAAUACUUUAAUUUAUCACUACGAAAUCUUGUGAUCGGGCGUUCGACUCGCCCCCGGGAGAUUUUUUCCUCGAGCAA
